Laboratory results: PubChem BioAssay AID1508624 (National Center for Advancing Translational Sciences (NCATS), 2021)
Hit rate of the full screen: of about 48,000 compounds, about 120 (0.25%) were called active. About 4% were inconclusive and are not listed. Calls come from the whole dose curve; as a rule, active = well fitted activation curve with a large enough effect; inconclusive = small, poorly fitted or top-dose-only effect, or another doubt; inactive = no such curve, though single readings can be large or run the other way. The list shows a part of the results.

experiment: Primary qHTS for Identification of Small Molecule Activators of Huntingtin-Antisense Promoter Activity; conditions: HEK293 HTT-AS promoter firefly luciferase reporter, 24 h; series mostly up to 57.5 µM; activity change, positive = activation: at the top concentration; note: nearly all actives have a fitted effect of over 55% in size
How it was run: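 Firefly luciferase readout (Dual-Glo, 10 min RT) after 24 h, 37 °C compound exposure (final up to 57.5 uM) of HEK293 reporter cells cultured 24 h beforehand; PTC124 at 50 uM final as control inhibitor; activity scaled vehicle 0%, zero RLU -100%.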

Activity change, positive = activation, inactive:
COc1ccccc1Nc1ncc2c(n1)CCN(Cc1cc(F)cc(F)c1)C2 -15%
Cc1ccc(-c2c3c(=O)n(C)c(=O)n(C)c3c3cnc4ccccc4n23)cc1 -10.4%
Cc1ccc(S(=O)(=O)CC(=O)Nc2nc3c(C)cccc3s2)cc1 -8.01%
CSc1ccc(/C=C/c2nc3ccccc3n2S(=O)(=O)c2ccc(Br)cc2)cc1 -68.6%
CCOC(=O)c1c(C)[nH]c(C)c1S(=O)(=O)N1CCCC(C(=O)Nc2cccc(CC)c2)C1 (stereo unspecified) -3.8%
CCOc1ccc(NC(=O)CCc2c(C)nc3nc(-c4cc(OC)cc(OC)c4)nn3c2C)cc1 -15.2%
COc1cccc(NC(=O)/C(C#N)=C/c2c(C)n(Cc3ccccc3)c3ccccc23)c1 -18.1%
CC(=O)N1CCc2cc(Br)cc(S(=O)(=O)NCCc3cccc(C)c3)c21 -9.66%
O=C(Nc1ccc(Cl)c(C(F)(F)F)c1)c1nc2ccccc2nc1N1CCCCC1 -40.6%
COc1ccc(-c2[nH]c3c(c2-c2c(-n4cccc4)n(C)c(=O)[nH]c2=O)c(=O)[nH]c(=O)n3C)cc1F -11.6%
COc1ccc(-n2nnc(-c3nsc(NC(=O)c4cccc(C)c4)n3)c2C)cc1OC -25.7%
COc1ccccc1Nc1nc(N)nc(N)c1S(=O)(=O)c1ccccc1 -11%
CC1=C(c2ccc(C)c(C)c2)S(=O)(=O)N=C1N1CCC(C(=O)NCc2ccc(N(C)C)cc2)CC1 -13%
Nc1c(-c2nc(-c3ccccc3Cl)no2)nnn1-c1ccccc1C(F)(F)F 23.3%
COc1ccccc1NC(=O)N1CCN(c2nnc(C)c3c(C)n(-c4ccccc4)nc23)CC1 -11.2%
O=c1c2oc3ccccc3c2n(Cc2ccccc2F)c(=O)n1Cc1ccc2c(c1)OCO2 -13.4%
CCN(CC)S(=O)(=O)c1ccc(NC(=O)c2c(C)oc3ncnc(N4CCCCC4)c23)cc1 -18.1%
CCN(CC)CCN(C(=O)c1ccco1)c1nc2ccc(F)cc2s1 2.05%
Cc1ccc(-c2nnc(SCC(=O)NCc3ccccc3)o2)cc1 -13.8%
CCCC(=O)N1c2ccccc2-c2nnc(SC)nc2OC1c1sccc1C (stereo unspecified) 9.9% [at 11.5 µM, percent change from vehicle, -100% = no light]
Cc1ccc(C)c(N2CCN(S(=O)(=O)c3cc(C(=O)Nc4ccccc4C(F)(F)F)ccc3F)CC2)c1 -15%
CC(Oc1ccccc1)C(=O)Nc1c(C(=O)Nc2cccc(F)c2)oc2ccccc12 (stereo unspecified) -1.77%
CCc1ccc(S(=O)(=O)Nc2cc3c(cc2C)n(C)c(=O)c(=O)n3C)cc1 -33.8%
CCOC(=O)c1c(NC(=O)COc2ccc(Cl)cc2Cl)sc2c1CCCCC2 1.61%
CN(C)c1ccc(CNC(=O)Cn2c(-c3cccs3)cc3cc(Cl)ccc32)cc1 -23%
CCOC(=O)c1[nH]c(C)c(CCC(=O)N2CCN(c3cc(C)ccc3C)CC2)c1C -39.3%
Cc1ccc2oc(=O)c3cnn(CC(=O)N4CCN(c5cccc(Cl)c5)CC4)c3c2c1 -2.53%
Cc1ccc(NC(=O)c2nc(S(=O)(=O)Cc3ccc(F)cc3)ncc2Cl)cc1C -69.2%
CCOc1ccc(OCC)c(NC(=O)CN(C)S(=O)(=O)c2ccc3[nH]c(=O)oc3c2)c1 -13.9%
Cc1cccc(C(=O)Nc2ccc3nc(SCC(=O)N4CCCC4)sc3c2)c1 -16.8%
O=C(CSc1nc(=O)[nH]c2c1CCC2)Nc1cc(C(F)(F)F)ccc1Cl -33.3%
Cc1cc(C(=O)NCCc2ccc(Cl)cc2)c2c(C)nn(-c3ccccc3)c2n1 1.89%
COc1cc(CNC(=O)c2ccc(NC(=O)N3CCCCc4ccccc43)cc2)cc(OC)c1OC -12%
CC(=O)[C@@]1(O)CC[C@H]2[C@@H]3CCC4=CC(=O)CC[C@]4(C)[C@H]3CC[C@@]21C -11.9%
CC(=O)c1cccc(NC(=O)CCn2nc(C)c(S(=O)(=O)N3CCCCC3)c2C)c1 -12.1%
O=C(NCCc1ccc(Cl)cc1)c1cnc2sc(N3CCCC3)nn2c1=O -19.3%
CCc1ccccc1NC(=O)C1CCCN(S(=O)(=O)c2ccc3[nH]c(=O)ccc3c2)C1 (stereo unspecified) -21.8%
Cc1ccc(OCC(=O)NCC(=O)OCc2cc(=O)n3nc(CC(C)C)sc3n2)cc1 2.22%
O=C(c1cccs1)N1CCCc2cc(NS(=O)(=O)c3cc(F)ccc3F)ccc21 -27.9%
COc1ccc(OC)c(CCNC(=O)CCCn2c(=O)c3cccn3c3cccnc32)c1 1.09%
CCOc1ccc(CNS(=O)(=O)c2ccc3c(c2)CC(C)N3C(C)=O)cc1OC (stereo unspecified) -29.3%
O=C(NCc1ccccc1)c1ccc(CS(=O)(=O)c2c(Cl)cccc2Cl)o1 -16%
COc1ccc(N2CCN(C(=O)CSc3nc(-c4ccccc4)no3)CC2)cc1 20.6%
Cc1ccc(NC(=O)Cn2nc(C)c3nn(-c4ccc(Cl)cc4)c(C)c3c2=O)cc1F -31.1%
Cc1c(CN2CCN(C(=O)C(C)C)CC2)sc2c(N3CCOCC3)nc(-c3cnc(N)nc3)nc12 -36.2%
COc1ccc(-c2n[nH]c3c2C(c2ccccn2)N(C)C3=O)cc1 (stereo unspecified) -11.3%
COc1ccc(-n2nc3c(N4CCC(C(=O)NC5CCCCC5)CC4)nnc(C)c3c2C)cc1 -6.58%
Cc1ccccc1Cn1c(SCc2ccc(C(=O)N3CCCCC3)cc2)nc2ccncc21 -12.5%
O=S(=O)(NCCc1csc(-c2cccc(F)c2)n1)c1cc(F)ccc1F -17%
COc1cc(NC(=O)CCNC(=O)Cn2ccc3ccccc3c2=O)cc(OC)c1OC 13.6%
COc1ccc(CCNC(=O)c2cc(Nc3ccccc3)nc3ccccc23)cc1OC -20.8%
O=C1CCc2cc(S(=O)(=O)NCc3ccccc3)cc3c2N1CC3 -1.15%
CCCCCCCCCCOc1cc2c(=O)c(C(=O)OCC)c[nH]c2cc1OCC -6.19% [at 6 µM, percent change from vehicle, -100% = no light]
CCn1c(C(=O)Nc2ccccc2C(=O)OC)cc2sc(Cl)cc21 5.96%
COC(=O)c1c(NC(=O)CCCOc2ccc(C)cc2)sc2c1CCCC2 -18.5%
Cc1nc2c(c(C)nn2-c2ccccc2)c(C)c1CCC(=O)Nc1ccccc1 -8.46%
O=C(Nc1ccc(S(=O)(=O)N(Cc2ccccc2)c2ccccc2)cc1)c1ccccc1F 10.9% [at 11.5 µM, percent change from vehicle, -100% = no light]
Cc1ccc(NC(=O)Cn2c(=O)n(Cc3ccc(F)cc3)c(=O)c3cccnc32)cc1C -3.36%
CCCn1ccc2c(OCC(=O)Nc3ccccc3C(=O)OCC)cccc2c1=O -36.5%
O=C(CCCCn1c(=O)c2ccccc2n(Cc2ccc(F)cc2Cl)c1=O)NCCc1ccc(Cl)cc1 -35%
COC(=O)c1ccccc1NC(=O)CCCn1c(C)c2cnn(-c3ccccc3)c(=O)c2c1C -3.24%
CC(=O)c1ccc(NC(=O)C2CCN(S(=O)(=O)c3c(C)noc3/C=C/c3ccc(C)cc3)CC2)cc1 -30.6%
COc1ccc(CNC(=O)CN2C(=O)COc3ccccc32)c(OC)c1 17.4%
Cc1ccc2nc(NC(=O)CSc3cc(C)[nH]c(=O)n3)sc2c1 19.7%
Oc1ccccc1-c1nc2cnccn2c1Nc1ccc(Cl)cc1 -34.3%
Nc1nccc(Oc2ccc(NC(=O)c3c[nH]cc(-c4ccc(F)cc4)c3=O)cc2F)c1Cl -40.5%
COc1ccc(-c2nn3c(-c4ccccc4)nnc3c3ccccc23)cc1 7.47%
CCOc1ccc(C(=O)N2CCc3cc(OC)c(OC)cc3C2COc2ccc3c(C)cc(=O)oc3c2)cc1OCC (stereo unspecified) -10.7%
CCOc1ccc(CNC(=O)CCCn2c(=O)c3cccn3c3cccnc32)cc1 -7.21%
Cc1cccc(N2CCN(C(=O)Cn3c(C)c4cnn(-c5ccccc5)c(=O)c4c3C)CC2)c1C -49%
CCCCn1c(SCc2ccccc2C)nc2ccsc2c1=O -2.91%
COc1ccc(CNC(=O)C(=O)NCC(c2ccco2)S(=O)(=O)c2cccs2)cc1 (stereo unspecified) -1.57%
Cc1nnc(SCc2cc(=O)c3cc(F)ccc3[nH]2)n1C -4.43%
Cc1ccc(NS(=O)(=O)c2ccc3c(c2)CCN3C(=O)C2CC2)c(C)c1 -26.1%
Cc1ccc(NC(=O)c2ccc3c(O)c(S(=O)(=O)c4ccc(Cl)cc4)c(=O)[nH]c3c2)cc1 -2.53%
CCOC(=O)C1CCCN(C(=O)Cn2ncc3c(C)n(Cc4ccc(Cl)cc4)c(C)c3c2=O)C1 (stereo unspecified) -24%
C=C(C)Cn1c(SCC(=O)c2ccc(Br)cc2)nc2sc3c(c2c1=O)CCCC3 -4.26%
CC1=C(C#N)C(NC(=O)c2ccccc2)(C(F)(F)F)C(=O)N1 (stereo unspecified) -11.6%
Cc1ccc(S(=O)(=O)c2nc(-c3cccs3)oc2SCc2ccc(F)cc2)cc1 -4.28%
CC(C)c1ccccc1NC(=O)C(Cc1c[nH]c2ccccc12)NC(=O)OC(C)(C)C (stereo unspecified) -24.8%
COc1ccccc1CNC(=O)Cc1c(C)c2cc3c(C)coc3c(C)c2oc1=O -6.95%
CCOC(=O)c1ccc(Nc2c(-c3ccc(OC)cc3)nc3nc[nH]n23)cc1 -45.6%
CCOc1ccc(CCNC(=O)C2Cc3ccccc3N2C(=O)CC)cc1 (stereo unspecified) -5.5%
Cc1ccccc1Cn1c(=O)n(Cc2ccco2)c(=O)c2sc3ccccc3c21 -19.4%
COc1ccc(CNC(=O)CC(C)CC2=NS(=O)(=O)c3ccccc3N2)cc1 (stereo unspecified) -22.9%
CCOc1ccc(S(=O)(=O)Nc2ccc3c(c2)CCCN3C(=O)c2cccs2)cc1 -22%
CCC(=O)N1CCc2cc(CNC(=O)Nc3cc(OC)c(OC)c(OC)c3)ccc21 -5.53%
CCN(CC)C(=O)C1=C(C)Nc2nc3ccccc3n2C1c1ccccc1F (stereo unspecified) -6.42%
CCOC(=O)c1cc2c(=O)n3ccccc3nc2n(CCCOC)c1=NC(=O)c1c(-c2c(F)cccc2Cl)noc1C -29.9%
O=C(Cc1ccc(NC(=O)N2CCCCc3ccccc32)cc1)NCc1cccc(Br)c1 -9.05%
COc1ccc(Cl)cc1NC(=O)Cn1c(=O)n(-c2ccc(C)cc2)c(=O)c2ccc(C(=O)NCc3ccccc3Cl)cc21 -25.1%
